{
  "source": "the supplement of paper PMC10600219",
  "note": "The full ranking holds about 2,800 compounds; the median of “cell viability relative to vehicle” is about 0.98, and the lowest 2% start at about 0.45. Some of the results follow.",
  "data": [
    {"tested_on": "NCI-H2228 alectinib-DTP", "assay": "cell viability relative to vehicle (fraction of vehicle); NCI-H2228 is an ALK-positive lung cancer line and DTP means drug-tolerant persister; higher = less growth inhibition", "conditions": "100 nM; treatment time 6 days", "in_short": "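Drug-tolerant persister NCI-H2228 cells, produced by 13 days in 1000 nM of a targeted drug, and their parental counterparts were seeded into 384-well plates and, the following day, given the 3114-agent TargetMol anti-cancer compound library at 100 nM or DMSO vehicle. After 6 days, the CellTiter-Glo 3D Cell Viability Assay was used to read ATP. Each entry reports viability compared with vehicle-treated cells.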", "values": [
      {"smiles": "C/C(=C\\C(=O)OCCCCCCCCC(=O)O)C[C@@H]1OC[C@H](C[C@@H]2O[C@H]2[C@@H](C)[C@H](C)O)[C@@H](O)[C@H]1O", "note": "[Mupirocin]", "cell viability": 0.964},
      {"smiles": "N#C/C(=C\\c1ccc(O)c(O)c1)C(=O)NCCCc1ccccc1", "cell viability": 1.03},
      {"smiles": "CCCCCCCCCCCCCCCC(=O)O", "note": "[Palmitic acid]", "cell viability": 1.27},
      {"smiles": "O=C(O)c1cc(/N=N/c2ccc(S(=O)(=O)Nc3ccccn3)cc2)ccc1O", "note": "[Sulfasalazine]", "cell viability": 0.865},
      {"smiles": "C#C[C@]1(O)CC[C@H]2[C@@H]3CCC4=CC(=O)CC[C@@H]4[C@H]3C(=C)C[C@@]21CC", "note": "[Etonogestrel]", "cell viability": 0.908},
      {"smiles": "NC(=O)c1ccc(I)c([N+](=O)[O-])c1", "note": "[Iniparib]", "cell viability": 1.08},
      {"smiles": "c1ccc(-c2oc3ncnc(NC[C@@H]4CCCO4)c3c2-c2ccccc2)cc1", "cell viability": 1.06},
      {"smiles": "COc1c(O)cc2oc(-c3ccccc3)cc(=O)c2c1O", "note": "[Oroxylin A]", "cell viability": 1.13},
      {"smiles": "O=C(O)[C@H](CC(=O)N1C[C@H]2CCCC[C@H]2C1)Cc1ccccc1", "note": "[Mitiglinide calcium]", "cell viability": 0.857},
      {"smiles": "C[C@]12CCC3=C4CCC(=O)C=C4CC[C@H]3[C@@H]1CC[C@@]2(O)CC#N", "note": "[Dienogest]", "cell viability": 0.969},
      {"smiles": "COC(=O)c1ccc(O)c(OC)c1", "note": "[Methyl Vanillate]", "cell viability": 1.05},
      {"smiles": "CS(=O)(=O)c1ccc(-c2nnc(/C=C/c3nnc(-c4ccc(C#N)cc4)o3)n2-c2ccccc2Cl)nc1", "cell viability": 0.736},
      {"smiles": "COc1cc2ncnc(-n3nc(-c4ccccn4)nc3N)c2cc1OC", "cell viability": 1.06},
      {"smiles": "Nc1ncnc2c1ncn2C1OC(COP(=O)(O)O)C(O)C1O", "note": "(stereo not given) [Adenosine 5'-monophosphate monohydrate]", "cell viability": 1.06},
      {"smiles": "O=C(O)c1ccccc1O", "note": "[Salicylic acid]", "cell viability": 1.08},
      {"smiles": "O=c1oc2cc(O)ccc2s1", "note": "[Tioxolone]", "cell viability": 1.13},
      {"smiles": "Cc1[nH]nc(C(F)(F)F)c1Cc1sc2c(c1C(=O)N1C[C@](C)(O)CO1)c(=O)n(C)c(=O)n2C(C)C", "cell viability": 1.11},
      {"smiles": "COc1cc2ncnc(Nc3cccc(Cl)c3)c2cc1OC", "cell viability": 0.759},
      {"smiles": "Cc1cccc(-c2[nH]c(C(C)(C)C)nc2-c2ccc3c(c2)OCO3)n1", "cell viability": 1.02},
      {"smiles": "CC(NC(=O)c1ccccc1/N=C/c1c(O)ccc2ccccc12)c1ccccc1", "note": "(stereo not given) [Sirtinol]", "cell viability": 0.976},
      {"smiles": "C=CCSC[C@H](N)C(=O)O", "note": "[S-allyl-L-cysteine]", "cell viability": 1.06},
      {"smiles": "CC(C)(OCc1nn(Cc2ccccc2)c2ccccc12)C(=O)O", "note": "[Bindarit]", "cell viability": 1.1},
      {"smiles": "Nc1n[n+]([O-])c2ccccc2[n+]1[O-]", "note": "[Tirapazamine]", "cell viability": 1.04},
      {"smiles": "O=C(Nc1nc2ccc(NC(=O)C34CC5CC(CC(C5)C3)C4)cc2s1)c1ccccc1", "cell viability": 1.01},
      {"smiles": "CCn1c(C(=O)N(C2CC2)C2CC2)cc2c3c(ncn3C)c(Nc3cc(C)n(C)n3)nc21", "cell viability": 0.919}
    ]}
  ]
}
